Results reported in the supplement of paper PMC11417369.
The other results are listed elsewhere or left out.

Tested on: PfHDP1 homeodomain (GST-tagged)
Test: gcPBM binding intensity (ln(normalized median fluorescence intensity)); higher = stronger DNA binding
How it was run: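 Alexa488 anti-GST antibody, scanned at 488 nm, detected GST-tagged P. falciparum DNA-binding domains that had been expressed in E. coli and incubated for 1 h on an Agilent 4 × 180k array. The array carried primer-extended double-stranded 36-bp intergenic genomic probes and negative controls. Binding intensity is the highest Masliner-normalised natural-log median intensity across replicate spots of either orientation of each probe.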

Row | Sequence | gcPBM binding intensity (ln)
1 | AAAAAAAAAAAAAACACACACATATATATAATATAT [CACACA_site3172] | 6.55
2 | TTTTGACTAATATAATATGTTAAGAATTAATAAATA [XGTACX_negctrl_site35] | 6.03
3 | CAAAAAGATAAGGTGTGTACGTATTATAATTTTAAA [XGTACX_site531] | 7.01
4 | TGAAATGATCTTTAGTTGCACTTAAAAATATATATA | 8.52
5 | ATTTAATTTTCCAAATGTACTTATATTTTTATGAAA [XGTACX_site6144] | 6.43
6 | TTAAAAATTATGGATACACACATATATATATATATT [CACACA_site2383] | 6.51
7 | GATATTAAAATATGTAGTACACATATTATATCATAT [XGTACX_site4167] | 6.26
8 | ATAGTTCCTTTTAATACACACAAAAAAAAAAACATG [CACACA_site3415] | 6.58
9 | TATAGGTAAATGGACACACACATATTTATATTTATA [CACACA_site7683] | 6.61
10 | TGTAGTCTGGAGAAGAGTACATAGTATCTGGTAACA [XGTACX_site4944] | 6.52
11 | TATAATATAAGGATCACACACAAACAGACATATATA [CACACA_site557] | 7.01
12 | ATAGAAGCATCACACTGTACATGGATGAACAGAAAA [XGTACX_site7311] | 6.14
13 | TAATGTTTTTATATCACACACAAATATTAAATGATT [CACACA_site543] | 6.37
14 | TTATTAGGTGTATAATGTACATATAATATATATATA [XGTACX_site3398] | 8.2
15 | AAAAACAAAATATAATGTACACAATATATGTATATA [XGTACX_site2301] | 6.53
16 | AAATATTACTACACTACATGCAGTTTTAGGTACACT [TGCATGCA_site42] | 6.65
17 | AATAAACATAAATACACACACAAAAAAAAAAACATA [CACACA_site4396] | 6.9
18 | TTTTTTTTTTTTTGATGTACTAAAAAAAATGAGCCT [XGTACX_site8535] | 6.32
19 | CCAATACATAGAAACTGTACATTATGCATTATACAC [XGTACX_site3531] | 6.98

Row | Sequence | gcPBM binding intensity (ln)
20 | AATATCTAAATAAAGTGTACTTACCTTATTAATTAT [XGTACX_site2276] | 6.05
21 | ATATATATAATGTGAAGTACATTTTGTTTACATATT [XGTACX_site8405] | 6.77
22 | ATAATTTCTTTTACATGTACAAAATTTGCTTATATG [XGTACX_site5388] | 7.05
23 | TATATATATACATACATACACACATATATATATATA [CACACA_site4109] | 9.2
24 | TAATTTATGGAATATGTGCACTTGCTGATCACTTTT [GTGCAC_site9843] | 9.34
25 | TTTATTAAATAATCTCTTTTTATTACATAATAATAA [XGTACX_negctrl_site382] | 5.91
26 | TTTACACTTTCCAATAGTACATATTAGAATAATTCT [XGTACX_site7734] | 6.53
27 | GGATTATTTATAGGAGTGCATACATATATATATATA [GTGCAC_site9454] | 9.37
28 | ATTAGCTACAAACAAAGGCTACCTATAGCAAGAGGG [GTGCAC_negctrl_site33] | 6.56
29 | AATTTAATCCGTAATAAGAAAAGAAAAAAAAAAAGA [GTGCAC_negctrl_site129] | 6.48
30 | TTATATGTATATATAGTGCAGAACAAAAGATTATAT [GTGCAC_site9599] | 7.69
31 | TTTTTGTTTCATAAATGTACAAAAACAAACATATTT [XGTACX_site5281] | 6.45
32 | ATTTTCCTATTTAGTAGTACTTTTTTCTTTTTTTAA [XGTACX_site5260] | 6.7
33 | TCGTCTCAATAATTATAATAAAAAAATTCCTAAGTC [CACACA_negctrl_site338] | 6.28
34 | ATTTTTTTTTTTTTTTGTACGAATAATATGTATGAA [XGTACX_site5318] | 6.38
35 | TATAAAAAATATATATATAATATTATATATATATAT [TGCATGCA_negctrl_site260] | 8.83
36 | AAAGGAGGGAATTTTTCTAGGTGTGGAGTGCTACTC [XGTACX_negctrl_site63] | 6.36
37 | ATTATATTTATTAATATGTATATTTAATTATATTTA [XGTACX_negctrl_site376] | 6.22
38 | ATTATTGTTTATTGATTTTTGTTAAAATAGGAAATT [GTGCAC_negctrl_site181] | 6.44

Row | Sequence | gcPBM binding intensity (ln)
39 | TTTCATCTCGTCATTTCTTATATAACTATTTTATAC [CACACA_negctrl_site813] | 6.88
40 | TTCTTTATTATATGCACACGTACATAAAATATATAT [CACACA_site5157] | 9.96
41 | AAGTGTAAAAGTTACACACACAAACTTGTCATTTTT [CACACA_site4614] | 6.32
42 | CAAATTTTTTATTAAACACACAAACATATATATATA [CACACA_site5122] | 8.88
43 | CTTATAAATAAAAGAAGTACATGTTAGTTCAAGTTA [XGTACX_site4183] | 6.37
44 | TTGAAGAAAAAAAAATGTACATAAAAAATATATATG [XGTACX_site428] | 6.79
45 | AAGAAAAGAAACAAAAAAAAAAAGAAATAAAAGGAA [TGCATGCA_negctrl_site171] | 6.24
46 | TTATTATCATCAAATCAAAAAATTCTTTTACCTGTT [CACACA_negctrl_site1348] | 5.83
47 | TATATATATATATGTAGTACCTATAATATTAAATAC [XGTACX_site6118] | 9.16
48 | TATGAATGGTTAAGTACACACATATTAATATAGGTA [CACACA_site7606] | 6.56
49 | AATTTTTTTTTTTTTTTTTTTTATATATGTGTGTGT [XGTACX_negctrl_site129] | 6.26
50 | TATTTATGTTCATATAAACACACGTAAAATTCAAGG [CACACA_site1538] | 6.63
51 | CATATTCATAAAAGTTGTACATGCAATTTTTTTTTT [XGTACX_site2261] | 6.6
52 | TCAATAAAAAAAAACGCACACACAAATATATTCCAT [CACACA_site1223] | 7.03
53 | GTCCCTATAAGGGGAACACACATAAATGGATATATA [CACACA_site6612] | 6.2
54 | TATTTATTTTTCTGTTGTACTTTTCAACATGTTACA [XGTACX_site7457] | 6.8
55 | TCTACATATTAATTATGTACGAATTATTATTAGTAA [XGTACX_site6924] | 6.03
56 | TAAATGGGTGTTAATGCACACGATATGTCTATATAT [CACACA_site5321] | 9.86
